Measurements: the supplement of paper PMC12632987
The full ranking holds about 4,500 sequences; the median of “median log2 fold change of GCK-ALFA target abundance (FLAG IP / Myc IP barcode read proportion)” is about 0.078, and the lowest 2% start at about -0.6. This is one part of the list.

B1: GBRAP_83_6902 (protein)
chain: AEKVTVAGPGDKAEELADIVIDLSKEEGYEVVVEVIVTPETVEKVLEMAKRLAEAGVEVELEVLAVGMTEEQAKELEEKIKKIAEEYGVNIKVKVYVEKP
B2: GBRAP_128_3377 (protein)
chain: INKEKLEEVRKLVEEAIESNVEETAKLTREIIELMGTASKEEKEEIAEIVIENLPKFSKEKLEVIADVIREMRPKADPYGQELLNEVEVEALNEAEELEE
B3: GBRAP_11_2694 (protein)
chain: KKEELKKAAKLAEELAKLLEELLKEGVDNEKLQKEIEKKLEELEKLAKKYGDEGLKKLTEIAKELWKKAKEDPENKEKYLKEALAAARVLEGQYLLEIEE
B4: GBRAP_80_6851 (protein)
chain: AEAALAAALAALAAVLPEAAADAREIVALARALGVPLEVITDYLNAVTELAKLDPALAKALLRELLADLREEAAAGDRANAEAVLRGYAGEALLLAEELE
B5: GBRAP_122_2953 (protein)
chain: NKEEEVERLVKETLERAEKENPTETFIEAIKRAAEELDEESVIRFAEKLAEKAREKGWEAEALKAFATAAKWLYENKPELEEAADRLAELADELADLLLE
B6: GBRAP_52_5997 (protein)
chain: REERIEALARELVEATLAGDDERVRALLRRIAAELSDEEIVETVRLATRLLERDPRATLEDLANFIDLVEDVLEEEGKSDELIARVLGAIAEAIYEAELE
B7: GBRAP_125_3086 (protein)
chain: AVERALEAAGTILRAAGFSDEDVEEFKKLSADSTVKAVFNALAYLLLDEEMALKAEELTEEEALAVLERVAAEIAAHPDLTPEEVRALLAAAIEEALAAS
B8: GBRAP_128_3556 (protein)
chain: STEEKVARAEELLEKIKNSDEEEARRYAEELVALLASVDPETREAIVALILERLPELSVEQLEILADVFREQRPRVDPDVAEALADIEVEALNEALEKEE
B9: GBRAP_74_6500 (protein)
chain: MEEAEKKAEEFAELLRKGASREELLAHLDEMNVEALNLAVIKATEEAEKNAEELTEEQIDALAELADRVFAESEDPEAIDAAGRLVKILYERELRLREEE
B10: GBRAP_52_6019 (protein)
chain: MRERLRAFVEEVLALVRAGRLEEARARVEELIASLDEEEVLLLIEEVAALAAAAAPEDHDAVWRLAEMIAEAMERAGKDEVLADLLLARTAAALYEAEQR
B11: GBRAP_52_5874 (protein)
chain: KLEEAVKKLEEAVKAMKAGDEEKAKKILKEIVEEFDEETIIEAVKKLAEKVLGKSLEEAEAFYKTADLLAEILEEAGKDENVASYIEAIAGATLYTVEQK
B12: GBRAP_95_7072 (protein)
chain: DDDQLVIDSLAEVLETYVDLGKEEEARKAARELVELLKESGYLKLPSSLSLESRLLIVKEAAKILSEEDVKKLTEAILSSVEDEEEKKAIREELEKLLKE
B13: GBRAP_160_4653 (protein)
chain: SANMEKLIKEIEEILKEAVEMMKGESHEERVAIARDAEGQILLLLEENPEVTEEMEEEVDKIMRALVETIAANPDLTDEELAALFEKALKEIKETIEKLS
B14: GBRAP_83_6874 (protein)
chain: AEEITVAGPGDRVAELVDAAIDLHKEEGYEVSLEIIATPEQREAVLEALKKLAEAGVETDVTVLAVGATPEEAAALKAELEAIFAAAGVNNNVEVILEEP
B15: GBRAP_52_6054 (protein)
chain: MEEELKAQVEEAIALMKAGDEEAAKALLKKIAETLDEEELKLFAEIMAEAAAKAKPEDFDAMARLAELWEEALEEAGVDEAFADDALARIYAALYEAELK
B16: GBRAP_52_6359 (protein)
chain: ALEEALALLREALEAVLAGDRERARAILEELVATFDDETILAAVERLAAELADKSLEEAEAFLELALLLADVMDAAGRDPVTADAIEATAARLYMAVKAK
B17: GBRAP_160_4429 (protein)
chain: MEKLEKAIKEIRELFEEAAEMMKGQSAEERLVIVRVTKGEVLLTLEELGLLTDEIEKVIDETFAEIEAYIAAHPDISDEEFAALLEEAYDRIEEKLKKEF
B18: GBRAP_52_5940 (protein)
chain: MEEELEKIAEELIELALEGKDEELEKKAKEIAETYSDEEILKIAEKIAELAKKAPKEDLDAYFRLTEILTKQLEEAGRSEELISEIEGLMAKAMYENELK
B19: GBRAP_128_3202 (protein)
chain: VSPEAVAELKALAKEVIATKTDEAIKAFAKAVAEKLKAGEIDLDTLEEIVAYLGDGLSEDDIAKAMDALREALADVGPEYLATAQGVLGEKIMEKEEEEE
B20: GBRAP_52_5906 (protein)
chain: MRERLRRDLLEIIEAVKAGDRERAREIAERVAEEYNDEELRLAVEELARLALEAAPEDLPAWWETAEILAEALEEAGKEEVLADDLLAATAAAIHARLQA
B21: GBRAP_39_5633 (protein)
chain: EEEEEIELLESLAEAELAKRKVETGKSDEELYKELLKEAREKAKDNPELLALLEELDKLAEKKGEEAKERLTAIMALLLSGEPLEDVKKLMEAEIKRLKK
B22: GBRAP_125_3118 (protein)
chain: SMEEDLENLAIVLRALGLDEEDIEEALRLAREHGLKGTMIAVLKALGYEEAAELVEKLTEEEVRAVVAELAAEIRANPDLTPEEVKKRLLELLKEALEKS
B23: GBRAP_184_5045 (protein)
chain: TVLEREIEVEDKAELEAAMAALRAEAATVKGTLILLVKAPKFTKEMVETLMAALKDMLDAGYVTSVTVGLDGEMSEEVVDLAVELADEAGVNLVLALEEE
B24: GBRAP_78_6673 (protein)
chain: KVEEELDKAIEELNKAAKILIEMNTEEAQEILGKVVDAMSILVELQEGEANLEDAEEALKLLKEALKEVKKINTEEAKEAAKEIEEAIKHLEKAIKLLKE
B25: GBRAP_43_5769 (protein)
chain: SKELVEGAFETAILMLQDPSISEETKVKAIIAAMELAADEGYVDEKLLEEMIEEAGKTLSKESLKKILEAAKELAKKYPHAKEAFEKAAKKLEEAIKKKE
B26: GBRAP_128_3476 (protein)
chain: SDEEILAEAKKLAEEIVAAPVEEVPALVERYAKLLEKANPEVREAIAEILKAKIPELSEEKLEALYETLRELAKKANPEVQFYLNEIAVEAGQQILELEE
B27: GBRAP_52_6380 (protein)
chain: MVEEAKKILREAIELIMKGGPLEEVKALAKELLKYPEEVIEEAARLLAEELKGWSPEEAEKALEAALELGDILIEAGLPEEVASLIEAEIGKAAYEVLQK
B28: GBRAP_14_3856 (protein)
chain: MEELVKAVEKAAEETKEFAKELLPEHAEEIIKKIEELAKEMIKKIKEENLNKEEVAELADEAAEKLGKYIKEEGFANDEEIAALKAHLINEMLLELEKVE
B29: GBRAP_184_5066 (protein)
chain: SVAEETLEVRDLAEARAKLAALRAAVADHRGDLVVHLVLPEFDREIVALVLEGLAEIRAAGYARRVTVGLDADLTEEEADFAIELADAAGVNLTLALPEE

What follows are binders tested against GABARAP, O95166 (assay: median log2 fold change of GCK-ALFA target abundance (FLAG IP / Myc IP barcode read proportion) (log2 ratio); each designed protein is fused to an ALFA-tag nanobody in HEK293 cells to bring the named protein to FLAG-tagged glucokinase (GCK); Myc marks an untargeted standard; higher = target protein stabilised (more abundant)). Details: target protein: 3xFLAG-MCP-GCK-ALFA reporter; HEK293 landing pad (RPLP).
GABARAP, O95166, sequence (O95166 whole entry, the tested form may be a part): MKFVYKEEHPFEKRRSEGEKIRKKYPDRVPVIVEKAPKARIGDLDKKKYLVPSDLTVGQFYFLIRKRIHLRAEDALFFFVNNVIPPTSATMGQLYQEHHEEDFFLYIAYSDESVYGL
Summary of the method: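 Binders fused to an ALFA nanobody were recombined as a library into HEK293 landing-pad cells, which were induced with 2 μg mL^−1 doxycycline and then transfected to express a FLAG-tagged target and a Myc-tagged standard. After 48 h, circular RNA barcodes recovered by anti-FLAG and anti-Myc immunoprecipitation of lysates were reverse transcribed, amplified and sequenced. Each binder's target abundance is the median log2 ratio of FLAG to Myc barcode read proportions, from barcodes present at ≥10^−7 in both replicates, binders carrying ≥3 barcodes per replicate, a 10^−6 pseudocount and pooled replicates.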
In the case of B1, the “median log2 fold change” value is reported as -0.234. B2 was tested, and the “median log2 fold change” value was -0.00489. In the case of B3, the “median log2 fold change” value is reported as 0.166. In the case of B4, the “median log2 fold change” value is reported as -0.217. For B5, the “median log2 fold change” value was 0.241. In the case of B6, the “median log2 fold change” value is reported as -0.74. B7 was tested, and the “median log2 fold change” value was 0.13. For B8, the “median log2 fold change” value was 0.156. B9 was tested, and the “median log2 fold change” value was 0.134. In the case of B10, the “median log2 fold change” value is reported as -0.142. For B11, the “median log2 fold change” value was -0.0786. B12 was tested, and the “median log2 fold change” value was 0.353. In the case of B13, the “median log2 fold change” value is reported as 0.0632. With B14 the “median log2 fold change” value was 0.164. B15 was tested, and the “median log2 fold change” value was 0.0355. B16 was tested, and the “median log2 fold change” value was -0.203. B17 was tested, and the “median log2 fold change” value was 0.0186. B18 was tested, and the “median log2 fold change” value was 0.291. B19 was tested, and the “median log2 fold change” value was 0.179. With B20 the “median log2 fold change” value was -0.331. In the case of B21, the “median log2 fold change” value is reported as 0.334. B22 was tested, and the “median log2 fold change” value was 0.278. In the case of B23, the “median log2 fold change” value is reported as 0.0756. With B24 the “median log2 fold change” value was 0.127. In the case of B25, the “median log2 fold change” value is reported as 0.312. B26 was tested, and the “median log2 fold change” value was 0.306. In the case of B27, the “median log2 fold change” value is reported as 0.227. For B28, the “median log2 fold change” value was 0.197. In the case of B29, the “median log2 fold change” value is reported as 0.0273.
